Results from patent publication US20180044416A1 (UCB, published 2018).

Biological target: human FcRn with human beta2M on MDCK II clone 15 cells (human, UniProt P55899 24-365; P61769 partial chain)
Assay: cell-based or functional assay

Chain of UniProt P55899 (P55899 24-365, chain 1 of 2): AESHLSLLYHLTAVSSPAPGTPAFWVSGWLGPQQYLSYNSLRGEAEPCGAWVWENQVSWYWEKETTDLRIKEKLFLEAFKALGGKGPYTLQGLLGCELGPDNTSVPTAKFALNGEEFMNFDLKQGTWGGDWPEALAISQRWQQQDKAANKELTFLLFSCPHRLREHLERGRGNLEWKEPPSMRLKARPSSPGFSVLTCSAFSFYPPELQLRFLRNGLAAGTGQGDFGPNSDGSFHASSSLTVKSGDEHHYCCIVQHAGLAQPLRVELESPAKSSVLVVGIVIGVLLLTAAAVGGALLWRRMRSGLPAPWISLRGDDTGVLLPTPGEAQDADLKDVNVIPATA
Chain of UniProt P55899 (P61769 21-119, chain 2 of 2, further chain): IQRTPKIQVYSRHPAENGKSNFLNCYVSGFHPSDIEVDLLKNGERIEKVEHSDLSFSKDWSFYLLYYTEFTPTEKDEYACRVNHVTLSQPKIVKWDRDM

B1: IgG4 Fc IgM tp L309 (wild type IgG4 Fc-multimer) (Fc fusion)
chain: [human IgG4 Fc with S228P (EU numbers) not printed]PTLYNVSLVMSDTAGTCY
- Blockade of IgG intracellular uptake EC50: 5.9 µg/mL
- Blockade of IgG recycling EC50: 1 µg/mL
